# About 540 (0.36%) of roughly 150,000 compounds showed an effect of 50% or more. This is one part of the list.
# System: Plasmodium falciparum
# Test: Primary screen in NF54 nanoGlo assay, in single point, at 2uM, 72h; a lower Z score goes with more inhibition
# Type: functional, Erythrocyte
# Settings: timepoint 72 hour
Structure (SMILES),% Inhibition [%],Z score
O=C(CCC1CCCC1)NCCn1ccnc1,-25,2.9
OCC1CCCN(C2CCc3ccccc3C2)C1 (stereo unspecified),-17,2.51
CC(C)(C)c1nccn1C[C@H]1COc2ccccc2O1,-12,1.86
CCOCC1CCN(CCc2ccc3c(c2)CCO3)CC1,-4,0.71
O=S(=O)(c1cccnc1)N1CC(c2cccnc2)C1,-7,1.37
CCS(=O)(=O)N1CC[C@H](Oc2nc(C)cc(C)n2)C1,-4,0.8
CCCS(=O)(=O)N1CCCC(C(=O)N2CC(C)OC(CO)C2)C1 (stereo unspecified),1,-0.11
O=C(c1ccn2nnnc2c1)N(Cc1ccsc1)C1CCCCC1,4,-0.54
COCCN1C[C@@H](c2nc(C3CCOCC3)n[nH]2)CCC1=O,-5,0.81
Cc1nn(C)c(C(=O)NCC[C@H]2CCCOC2)c1Cl,-9,1.46
O=C1CCC(=O)N1c1nc2n(n1)[C@H](c1ccccc1)C=C(c1ccccc1)N2,3,-0.36
CC(C)(CNC(=O)c1ccc2nc[nH]c2n1)c1cccc(Cl)c1F,-2,0.23
COCCc1ncc(-c2nc3cc(F)ccc3cc2-c2ccccc2)cn1,1,-0.12
COc1ccc(C(OC[C@H]2O[C@@H]3[C@@H](Oc4nc(=O)ccn43)[C@@H]2O)(c2ccccc2)c2ccc(OC)cc2)cc1,3,-0.33
CN1CCC(N(CCc2ccccc2)C(=O)c2cnn(C)c2)CC1,-15,1.95
Cc1cc(Cl)c2c(c1)[C@]1(C(=O)N2)[C@@H]2C(=O)N(c3ccc4c(c3)OCO4)C(=O)[C@@H]2[C@@H]2CCCN21,7,-0.88
CC(C)Cc1nc(Cn2nnnc2N)n(-c2ccccn2)n1,-11,1.05
CC(C)(C)OC(=O)C1CC(O)C(NC(=O)c2ccc(O)c(F)c2)C1 (stereo unspecified),-7,0.91
CS(=O)(=O)N[C@H]1C[C@H]2C(=O)Nc3ccc(-c4ccc(F)cc4F)cc3C(=O)N2C1,33,-3.71
COCCN1CCN(Cc2nc(NCCc3ccccc3OC)c3ccccc3n2)CC1,-1,0.11
CCCOc1cccc(CCN[C@H]2CCCc3c2cnn3C)c1,-9,0.88
CCc1onc(C)c1NC(=O)C(=O)NCCC1CCC1,-12,1.93
CN(Cc1cc2n(n1)CCCNC2)Cc1noc2c1CCCC2,-2,0.23

# — ChEMBL document CHEMBL4888484, “Replenishing the malaria drug discovery pipeline: Screening and hit evaluation of the MMV Hit Generation Library 1 (HGL1) against asexual blood stage Plasmodium falciparum ,using a nano luciferase reporter read-out” (2022)
